Experimental data reported in ChEMBL document CHEMBL4888484, “Replenishing the malaria drug discovery pipeline: Screening and hit evaluation of the MMV Hit Generation Library 1 (HGL1) against asexual blood stage Plasmodium falciparum ,using a nano luciferase reporter read-out” (2022).
Screen size: about 150,000 compounds; about 540 (0.36%) showed an effect of 50% or more. The list shows a part of the results.

test system: Plasmodium falciparum; test: Primary screen in NF54 nanoGlo assay, in single point, at 2uM, 72h; a lower Z score goes with more inhibition; type: functional, Erythrocyte; details: timepoint 72 hour

| Structure (SMILES) | % Inhibition | Z score |
| --- | --- | --- |
| O=C(O)c1nc(N2CC[C@H](c3ccccc3F)C2)ccc1Cl | 4% | -0.72 |
| C[C@H](NC(=O)c1ccc2c(c1)OCO2)C1CC1 | 15% | -1.71 |
| CC(C)n1ccc(CC(=O)NC[C@H](C)CN2CCCCC2)n1 | -1% | 0.13 |
| COc1ccc(N2CCN(CN3C(=O)C4(OCCCCO4)c4ccccc43)CC2)cc1 | -8% | 1.14 |
| O=C(NCCn1cnnn1)C12CCC(C(F)(F)F)(CC1)CC2 | 16% | -1.89 |
| O=C1C[C@@H](c2ccc(C(=O)O)cc2)c2c(ccc3nsnc23)N1 | -16% | 2.01 |
| Cc1ccc(S(C)(=O)=O)cc1NC(=O)N(C)Cc1noc(C2CCC2)n1 | -2% | 0.38 |
| COCC[C@H]1CN(c2ncc(F)c(OC)n2)CCO1 | -17% | 1.85 |
| CN1CCN(c2nnnc3c2cnn3-c2ccccc2)CC1 | 0% | 0.08 |
| O=C1[C@@H]2CCCN2C(=O)CN1Cc1ccccc1 | -5% | 0.59 |
| CC1c2ccsc2CCN1CC(=O)N1CCCC(c2nc3ccccc3s2)C1 (stereo unspecified) | -3% | 0.53 |
| Cc1ccc2c(c1)C(=O)N(CCC(=O)NCCCCc1nc(-c3cccnc3)cs1)C2=O | 1% | -0.25 |
| Cn1cc(C2CC2C(=O)NCCc2nc3c(F)cccc3n2C)cn1 (stereo unspecified) | 16% | -2.05 |
| Cc1cc(C(=O)NCc2cccc(C(=O)N3CCCC3)c2)c(C)n1-c1ccc2c(c1)OCCO2 | -4% | 0.56 |
| NS(=O)(=O)N1CCCN(C(=O)CCc2cccc(Cl)c2)CC1 | -7% | 1.15 |
| C[C@@H]1C[C@@H](Nc2ccccc2)c2ccccc2N1C(=O)c1ccccc1 | -10% | 1.92 |
| CC1=C[C@@H](CN)[C@H](C(C)C)C[C@H]1Cc1nc2ccc(C)cc2[nH]1 | -11% | 1.46 |
| Cc1c[nH]c([C@H](C)NS(=O)(=O)N2CCc3ccccc3C2)n1 | -4% | 0.84 |
| C[C@H](NC(=O)COc1ccc(-c2ncccn2)cc1CN1CCN(c2ccccc2)CC1)c1ccco1 | -7% | 0.9 |
| Nc1nnc(CNC(=O)c2nc3ccccc3[nH]c2=O)s1 | 9% | -0.99 |
| N#Cc1ccc(F)c(CN2CC[C@H](c3ccccc3)C2)c1 | 5% | -0.41 |
| O=c1[nH]ncn1C1CCN(c2nnnn2CC23CCCCC2C3)CC1 (stereo unspecified) | 1% | -0.13 |
| COCCN1C[C@]2(CCCN(C(=O)c3ccc4[nH]cnc4c3)C2)CCC1=O | -9% | 1.53 |
